The other results are listed elsewhere or left out. The full chains were built here from the parent and the listed change. Values near 0.05 are background.
B1: TEV protease; numbered along this chain (parent)
chain: MGESLFKGPRDYNPISSSICHLTNESDGHTTSLYGIGFGPFIITNKHLFRRNNGTLVVQSLHGVFKVKDTTTLQQHLVDGRDMIIIRMPKDFPPFPQKLKFREPQREERICLVTTNFQTKSMSSMVSDTSCTFPSGDGIFWKHWIQTKDGQCGSPLVSTRDGFIVGIHSASNFTNTNNYFTSVPKNFMELLTNQEAQQWVSGWRLNADSVLWGGHKVFMVKPEEPFQPVKEATQL

Variants of: B1
Assay: raw area under fraction-flipped curve 0-4 h after induction (AUC4h, not background-subtracted), DNA-recorder readout of cleavage of the substrate (dimensionless); higher = more cleavage of the substrate by the protease variant
Conditions: temperature: 34 °C; time window: 0-4 h after rhamnose induction
Protocol: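 In vivo DNA recorder in E. coli TOP10(DE3) ΔrhaA at 34 °C. Each TEVp single-site mutant (parent TEVp 0) is paired with a single-site variant of the 7-mer TEVs (canonical ENLYFQ|S). The substrate sits between flexible linkers in a Bxb1-sfGFP-TEVs-SsrA fusion, so cleavage stabilises Bxb1 and speeds flipping of a recombination array, read by NGS. The value is the raw area under the fraction-flipped curve over 0-4 h after rhamnose induction (AUC4h), with ≥20 reads per time point. It is not background-subtracted; inactive controls average about 0.047.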
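Note: Bxb1 expression induced with 0.2% (w/v) L-rhamnose at OD600 near 0.5, cultures sampled hourly, flipped fraction per protease–substrate barcode pair counted by paired-end Illumina sequencing.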

Variant | area with substrate ENLYFAS | area with substrate ENLYFCS | area with substrate ENLYFES | area with substrate ENLYFFS | area with substrate ENLYFHS | area with substrate ENLYFIS | area with substrate ENLYFKS | area with substrate ENLYFMS | area with substrate ENLYFNS | area with substrate ENLYFPS | area with substrate ENLYFTS | area with substrate ENLYFVS | area with substrate ENLYFYS | area with substrate ENLYFGS | area with substrate ENLYFLS | area with substrate ENLYFRS | area with substrate ENLYFSS | area with substrate ENLYFWS | area with substrate ENLYFDS
V157G | 0.0445 | 0.0457 | 0.0632 | 0.0586 | 0.0429 | 0.0468 | 0.0479 | 0.0783 | 0.0598 | 0.0692 | 0.0542 | 0.0624 | 0.0485 |  |  |  |  |  | 
N24G | 0.0422 | 0.0629 | 0.0642 | 0.0682 | 0.0611 | 0.0601 | 0.0666 | 0.0567 | 0.0637 | 0.0604 | 0.057 | 0.036 | 0.0554 | 0.0612 | 0.0686 | 0.0622 | 0.0544 | 0.0538 | 
D69P | 0.0506 |  | 0.0626 | 0.0703 |  | 0.0586 | 0.0724 | 0.0665 | 0.0661 | 0.0579 | 0.0596 | 0.064 | 0.0569 | 0.0584 |  | 0.0546 | 0.0777 | 0.0564 | 0.055
R204I | 0.0502 | 0.0503 | 0.0621 | 0.0676 | 0.0651 | 0.061 | 0.0669 | 0.0679 | 0.0732 | 0.0567 | 0.0523 | 0.0582 | 0.0533 | 0.0632 | 0.0611 | 0.0546 | 0.054 | 0.0531 | 0.0544
V64A | 0.0563 |  |  | 0.0655 |  |  | 0.0679 | 0.0734 | 0.0763 | 0.0596 | 0.0756 | 0.064 | 0.0542 | 0.0852 |  | 0.0656 |  |  | 0.0772
S32V | 0.0559 | 0.068 | 0.0668 | 0.0801 | 0.06 | 0.0367 | 0.0595 | 0.0653 | 0.0467 | 0.0598 | 0.0574 | 0.0532 | 0.0462 | 0.0607 | 0.0605 |  | 0.0621 | 0.0535 | 
G214S | 0.0508 | 0.0709 |  | 0.101 |  |  | 0.073 | 0.0595 |  |  |  | 0.0605 |  |  |  |  |  |  | 0.082
I19G | 0.0841 | 0.0546 | 0.0537 | 0.0689 | 0.0676 | 0.0568 | 0.056 | 0.0554 |  | 0.05 | 0.0518 | 0.0178 |  | 0.0477 | 0.0514 |  | 0.056 | 0.0534 | 0.0503
I15F | 0.0595 | 0.0553 | 0.0626 | 0.0638 | 0.0639 | 0.0552 |  | 0.0644 | 0.0672 | 0.0625 | 0.0524 | 0.0517 | 0.0429 |  | 0.0605 | 0.0549 |  |  | 
I167D | 0.0524 | 0.05 | 0.0507 | 0.0573 |  |  | 0.0425 | 0.0158 | 0.039 | 0.0534 | 0.0585 |  | 0.0464 |  | 0.0475 |  |  |  | 0.0621
I167E | 0.0521 | 0.0471 |  | 0.0605 |  | 0.102 | 0.0464 | 0.0564 |  | 0.0274 | 0.05 |  |  |  |  |  | 0.044 | 0.0618 | 
S121T | 0.0477 |  | 0.0902 |  |  | 0.066 |  |  |  | 0.0613 |  |  |  |  |  |  |  |  | 
P228F | 0.0424 | 0.0608 | 0.0494 | 0.0659 |  | 0.0604 |  | 0.0553 | 0.0698 | 0.062 | 0.051 |  | 0.0671 | 0.0599 | 0.0607 | 0.0626 |  | 0.0631 | 0.0548
